# Article PMC9911399, “Two distinct binding modes provide the RNA-binding protein RbFox with extraordinary sequence specificity”
# Substitutions are numbered along the chain they refer to; changes in the protein carry UniProt numbers. Some of the results follow.
# B1: AGCAACU (DNA:RNA)
# RNA: GGGAGACCGGAAUUCAGAUUGUCCAGCAACUUUAAAUCCCGUCGUAGCCACCA
# DNA 1: CAATCTGAATTCCGGTCTCCC
# DNA 2: TGGTGGCTACGACGGGATT
# B2: UGCCAGA (DNA:RNA)
# RNA: B1 RNA with A25U, A28C, C30G, U31A
# DNA 1: CAATCTGAATTCCGGTCTCCC
# DNA 2: TGGTGGCTACGACGGGATT
# B3: AGUAAUA (DNA:RNA)
# RNA: B1 RNA with C27U, C30U, U31A
# DNA 1: CAATCTGAATTCCGGTCTCCC
# DNA 2: TGGTGGCTACGACGGGATT
# B4: UUAUUCA (DNA:RNA)
# RNA: B1 RNA with A25U, G26U, C27A, A28U, A29U, U31A
# DNA 1: CAATCTGAATTCCGGTCTCCC
# DNA 2: TGGTGGCTACGACGGGATT
# B5: ACUAGUC (DNA:RNA)
# RNA: B1 RNA with G26C, C27U, A29G, C30U, U31C
# DNA 1: CAATCTGAATTCCGGTCTCCC
# DNA 2: TGGTGGCTACGACGGGATT
# B6: GGAUAGA (DNA:RNA)
# RNA: B1 RNA with A25G, C27A, A28U, C30G, U31A
# DNA 1: CAATCTGAATTCCGGTCTCCC
# DNA 2: TGGTGGCTACGACGGGATT
# B7: GCACGUC (DNA:RNA)
# RNA: GGGAGACCGGAAUUCAGAUUGUCCGCACGUCUUAAAUCCCGUCGUAGCCACCA
# DNA 1: CAATCTGAATTCCGGTCTCCC
# DNA 2: TGGTGGCTACGACGGGATT
# B8: ACGUGUA (DNA:RNA)
# RNA: B7 RNA with G25A, A27G, C28U, C31A
# DNA 1: CAATCTGAATTCCGGTCTCCC
# DNA 2: TGGTGGCTACGACGGGATT
# B9: GAACCAU (DNA:RNA)
# RNA: B7 RNA with C26A, G29C, U30A, C31U
# DNA 1: CAATCTGAATTCCGGTCTCCC
# DNA 2: TGGTGGCTACGACGGGATT
# Biological target: T1, RBFOX1 RRM RbFoxmut (Fox-RRM*) (Homo sapiens, UniProt Q9NWB1 109-208, R118D;E147R;N151S;E152T)
# T1 sequence: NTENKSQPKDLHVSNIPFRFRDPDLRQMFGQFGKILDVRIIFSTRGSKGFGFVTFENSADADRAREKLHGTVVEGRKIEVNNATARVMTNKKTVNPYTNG
# Test: EMSA; HiTS-Eq, 1 nM pool, 10 min; buffer printed only for the single-RNA assays: 10 mM Tris pH 7.5, 150 mM NaCl, 3.4 mM EDTA, 0.001% NP-40, 30 C
# Conditions: tags: His6 N-terminal (pET28a); label: 5' 32P
# Procedure, shortened: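 A pool of RNA with 7 randomized nucleotides, 5′-radiolabelled and with DNA-annealed flanks, was equilibrated at 1 nM for 10 min in 50 µL with purified RbFox RRM, wild type or mutant, across increasing protein concentrations. Free RNA was separated by 8% native PAGE, excised, reverse-transcribed, barcoded by PCR and sequenced. Relative association constants were obtained from read-count changes of each RNA species versus the control reaction and normalised to the cognate motif.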
row,Binder,binding signal
1,B1,0.0677 KA relative to UGCAUGU
2,B2,0.116 KA relative to UGCAUGU
3,B3,0.135 KA relative to UGCAUGU
4,B4,0.106 KA relative to UGCAUGU
5,B5,0.0862 KA relative to UGCAUGU
6,B6,0.119 KA relative to UGCAUGU
7,B7,0.117 KA relative to UGCAUGU
8,B8,0.276 KA relative to UGCAUGU
9,B9,0.0693 KA relative to UGCAUGU
